{"source": "the supplement of paper PMC8728848", "binders": {"B1": {"name": "PpFlo2 (Pichia pastoris) (protein)", "chain": "MGSSHHHHHHSSGLVPRGSHMDDSGNGDNSDTAYGCDITTNAVDGFDATIYQYNANDLRLIRDPTFMSTGYLGRNVLNKISGVTVPGFNIWNPSSRTATVYGVKNVNYYNMVLELKGYFKADVSGDYKLTLSHIDDSSMLFFGKETAFKCCDAGSIPLNEAPTDYSLFTIKPSNQVNSEVISATQYLEAGKYYPVRIVFVNALERARFDFKLTIPSGAVLDDFQNYIYQFGDLDENSCHE"}}, "assay_in_all_cases": "glycan array binding signal (z-score within array); higher = stronger binding", "conditions_in_all_cases": "glycan notation: IUPAC condensed, linker removed", "key": {"[1]": {"molecular_target": "Fuc(a1-2)[Gal(a1-3)]Gal(b1-3)GlcNAc(b1-6)GalNAc", "method_in_brief": "(§1)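 The binding signal is a Z-score computed within each array. Data were drawn from 3228 arrays in the Consortium for Functional Glycomics database, restricted to those with a known protein sequence. Scores were averaged over arrays of the same protein sequence at different concentrations or buffers, and over linkers, and negative values can be taken as non-binding.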"}, "[2]": {"molecular_target": "Fuc(a1-2)[Gal(a1-3)]Gal(b1-4)Glc", "method_in_brief": "as §1"}, "[3]": {"molecular_target": "Fuc(a1-2)[Gal(a1-3)]Gal(b1-4)GlcNAc", "method_in_brief": "as §1"}, "[4]": {"molecular_target": "Fuc(a1-2)[Gal(a1-3)]Gal(b1-4)GlcNAc(b1-2)Man", "method_in_brief": "as §1"}, "[5]": {"molecular_target": "Fuc(a1-2)[Gal(a1-3)]Gal(b1-4)GlcNAc(b1-2)Man(a1-3)[Fuc(a1-2)[Gal(a1-3)]Gal(b1-4)GlcNAc(b1-2)Man(a1-6)]Man(b1-4)GlcNAc(b1-4)GlcNAc", "method_in_brief": "as §1"}, "[6]": {"molecular_target": "Fuc(a1-2)[Gal(a1-3)]Gal(b1-4)GlcNAc(b1-2)Man(a1-3)[Fuc(a1-2)[Gal(a1-3)]Gal(b1-4)GlcNAc(b1-2)Man(a1-6)]Man(b1-4)GlcNAc(b1-4)[Fuc(a1-6)]GlcNAc", "method_in_brief": "as §1"}, "[7]": {"molecular_target": "Fuc(a1-2)[Gal(a1-3)]Gal(b1-4)GlcNAc(b1-3)GalNAc", "method_in_brief": "as §1"}, "[8]": {"molecular_target": "Fuc(a1-2)[Gal(a1-3)]Gal(b1-4)GlcNAc(b1-3)[Fuc(a1-2)[Gal(a1-3)]Gal(b1-4)GlcNAc(b1-6)]GalNAc", "method_in_brief": "as §1"}, "[9]": {"molecular_target": "Fuc(a1-2)[Gal(a1-3)]Gal(b1-4)GlcNAc(b1-6)GalNAc", "method_in_brief": "as §1"}, "[10]": {"molecular_target": "Fuc(a1-2)[Gal(a1-3)]Gal(b1-4)[Fuc(a1-3)]Glc", "method_in_brief": "as §1"}, "[11]": {"molecular_target": "Fuc(a1-2)[Gal(a1-3)]Gal(b1-4)[Fuc(a1-3)]GlcNAc", "method_in_brief": "as §1"}, "[12]": {"molecular_target": "Fuc(a1-2)[Gal(a1-3)]Gal(b1-4)[Fuc(a1-3)]GlcNAc(b1-3)GalNAc", "method_in_brief": "as §1"}, "[13]": {"molecular_target": "Fuc(a1-2)[Gal(a1-4)]Gal(b1-4)GlcNAc", "method_in_brief": "as §1"}, "[14]": {"molecular_target": "Fuc(a1-2)[GalNAc(a1-3)]Gal", "method_in_brief": "as §1"}, "[15]": {"molecular_target": "Fuc(a1-2)[GalNAc(a1-3)]Gal(b1-3)GalNAc(a1-3)[Fuc(a1-2)]Gal(b1-4)GlcNAc", "method_in_brief": "as §1"}, "[16]": {"molecular_target": "Fuc(a1-2)[GalNAc(a1-3)]Gal(b1-3)GalNAc(b1-3)Gal(a1-4)Gal(b1-4)Glc", "method_in_brief": "as §1"}, "[17]": {"molecular_target": "Fuc(a1-2)[GalNAc(a1-3)]Gal(b1-3)GlcNAc", "method_in_brief": "as §1"}, "[18]": {"molecular_target": "Fuc(a1-2)[GalNAc(a1-3)]Gal(b1-3)GlcNAc(b1-2)Man(a1-3)[Fuc(a1-2)[GalNAc(a1-3)]Gal(b1-3)GlcNAc(b1-2)Man(a1-6)]Man(b1-4)GlcNAc(b1-4)GlcNAc", "method_in_brief": "as §1"}, "[19]": {"molecular_target": "Fuc(a1-2)[GalNAc(a1-3)]Gal(b1-3)GlcNAc(b1-2)Man(a1-3)[Fuc(a1-2)[GalNAc(a1-3)]Gal(b1-3)GlcNAc(b1-2)Man(a1-6)]Man(b1-4)GlcNAc(b1-4)[Fuc(a1-6)]GlcNAc", "method_in_brief": "as §1"}, "[20]": {"molecular_target": "Fuc(a1-2)[GalNAc(a1-3)]Gal(b1-3)GlcNAc(b1-3)GalNAc", "method_in_brief": "as §1"}, "[21]": {"molecular_target": "Fuc(a1-2)[GalNAc(a1-3)]Gal(b1-3)GlcNAc(b1-6)GalNAc", "method_in_brief": "as §1"}, "[22]": {"molecular_target": "Fuc(a1-2)[GalNAc(a1-3)]Gal(b1-4)Glc", "method_in_brief": "as §1"}}, "note": "Some of the results follow."}
{"binder": "B1", "values": [{"measurement": "glycan array binding signal (z-score)", "setting": "[1]", "result": -0.26}, {"measurement": "glycan array binding signal (z-score)", "setting": "[2]", "result": -0.298}, {"measurement": "glycan array binding signal (z-score)", "setting": "[3]", "result": -0.288}, {"measurement": "glycan array binding signal (z-score)", "setting": "[4]", "result": -0.26}, {"measurement": "glycan array binding signal (z-score)", "setting": "[5]", "result": -0.209}, {"measurement": "glycan array binding signal (z-score)", "setting": "[6]", "result": -0.288}, {"measurement": "glycan array binding signal (z-score)", "setting": "[7]", "result": -0.286}, {"measurement": "glycan array binding signal (z-score)", "setting": "[8]", "result": -0.12}, {"measurement": "glycan array binding signal (z-score)", "setting": "[9]", "result": -0.169}, {"measurement": "glycan array binding signal (z-score)", "setting": "[10]", "result": -0.298}, {"measurement": "glycan array binding signal (z-score)", "setting": "[11]", "result": -0.302}, {"measurement": "glycan array binding signal (z-score)", "setting": "[12]", "result": -0.297}, {"measurement": "glycan array binding signal (z-score)", "setting": "[13]", "result": -0.282}, {"measurement": "glycan array binding signal (z-score)", "setting": "[14]", "result": -0.273}, {"measurement": "glycan array binding signal (z-score)", "setting": "[15]", "result": -0.301}, {"measurement": "glycan array binding signal (z-score)", "setting": "[16]", "result": -0.273}, {"measurement": "glycan array binding signal (z-score)", "setting": "[17]", "result": -0.297}, {"measurement": "glycan array binding signal (z-score)", "setting": "[18]", "result": -0.287}, {"measurement": "glycan array binding signal (z-score)", "setting": "[19]", "result": -0.284}, {"measurement": "glycan array binding signal (z-score)", "setting": "[20]", "result": -0.292}, {"measurement": "glycan array binding signal (z-score)", "setting": "[21]", "result": -0.275}, {"measurement": "glycan array binding signal (z-score)", "setting": "[22]", "result": -0.302}]}
